Data taken from article PMC4336329 (PLoS ONE, 2015).
The whole screen tested about 310,000 compounds, of which about 2,200 (0.71%) showed an effect of 50% or more. Effects have a minus sign here. The list shows a part of the results.

The compounds below were run against human ether-à-go-go-related gene (hERG) potassium channel (human, UniProt Q12809) (assay: primary screen, population patch clamp on CHO cells stably expressing hERG).
human ether-à-go-go-related gene (hERG) potassium channel, sequence (Q12809 whole entry, looked up): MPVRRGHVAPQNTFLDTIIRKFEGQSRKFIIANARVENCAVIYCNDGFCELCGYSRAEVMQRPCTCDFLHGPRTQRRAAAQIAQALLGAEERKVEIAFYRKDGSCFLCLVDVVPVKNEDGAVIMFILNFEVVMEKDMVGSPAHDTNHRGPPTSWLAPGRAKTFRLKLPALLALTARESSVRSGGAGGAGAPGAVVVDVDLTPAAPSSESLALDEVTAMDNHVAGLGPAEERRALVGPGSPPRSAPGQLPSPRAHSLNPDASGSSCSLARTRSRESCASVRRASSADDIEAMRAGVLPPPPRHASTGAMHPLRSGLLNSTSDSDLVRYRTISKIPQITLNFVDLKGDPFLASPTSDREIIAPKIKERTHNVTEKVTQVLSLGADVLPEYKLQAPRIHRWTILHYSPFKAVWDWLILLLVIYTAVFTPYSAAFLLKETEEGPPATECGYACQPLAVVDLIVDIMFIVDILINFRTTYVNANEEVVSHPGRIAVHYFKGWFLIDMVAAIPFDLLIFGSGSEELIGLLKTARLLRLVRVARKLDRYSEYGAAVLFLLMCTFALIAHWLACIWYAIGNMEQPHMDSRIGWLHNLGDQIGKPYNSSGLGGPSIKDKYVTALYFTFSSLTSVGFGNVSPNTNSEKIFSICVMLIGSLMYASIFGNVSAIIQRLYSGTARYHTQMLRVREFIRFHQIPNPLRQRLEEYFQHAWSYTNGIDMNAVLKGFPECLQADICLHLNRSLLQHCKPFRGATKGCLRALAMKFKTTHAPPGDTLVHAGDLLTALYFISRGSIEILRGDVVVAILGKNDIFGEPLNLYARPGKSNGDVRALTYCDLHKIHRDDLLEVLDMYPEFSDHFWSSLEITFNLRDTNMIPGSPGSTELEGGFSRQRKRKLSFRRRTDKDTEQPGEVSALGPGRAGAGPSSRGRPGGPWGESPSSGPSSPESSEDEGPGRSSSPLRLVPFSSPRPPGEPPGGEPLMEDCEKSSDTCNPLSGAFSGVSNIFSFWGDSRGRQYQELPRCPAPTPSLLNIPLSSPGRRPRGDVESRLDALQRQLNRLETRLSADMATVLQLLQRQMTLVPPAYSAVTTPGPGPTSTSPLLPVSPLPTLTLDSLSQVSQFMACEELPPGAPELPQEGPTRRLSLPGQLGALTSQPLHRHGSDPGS

Question: `COc1cc(NC(=O)c2ccccc2)c(OC)cc1NC(=O)Cc1ccc(F)cc1` was tested. Which “hERG current change (%, negative = inhibition) at 1uM” value did it give?
Answer: 6.34%

Question: With `Cl.Nc1c2ccccc2nc2ccccc12.O` as the compound, how does the “hERG current change (%, negative = inhibition) at 1uM” value read?
Answer: 6.6%

Question: `O=C(Oc1ccccc1Cl)c1ccc(N2CCOCC2)c([N+](=O)[O-])c1` was tested. Which “hERG current change (%, negative = inhibition) at 1uM” value did it give?
Answer: 5.77%

Question: `CCOC(=O)CN1N=C(/C=C/c2ccc(OCC)cc2)CCC1=O` was tested. Which “hERG current change (%, negative = inhibition) at 1uM” value did it give?
Answer: -8.48%

Question: `COC(=O)[C@H](Cc1ccccc1)NC(=O)NCCc1ccc(F)cc1` was tested. Which “hERG current change (%, negative = inhibition) at 1uM” value did it give?
Answer: 6.68%

Question: With `CCS(=O)(=O)C1=NN2C(=N)/C(=C\c3ccc(OCCOc4cccc(OC)c4)c(OC)c3)C(=O)N=C2S1` as the compound, how does the “hERG current change (%, negative = inhibition) at 1uM” value read?
Answer: 14.2%

Question: `COc1ccccc1CNC(=O)CC1Sc2ccccc2NC1=O` (stereo not shown) was tested. Which “hERG current change (%, negative = inhibition) at 1uM” value did it give?
Answer: 6.07%

Question: How did the “hERG current change (%, negative = inhibition) at 1uM” value turn out when `CS(=O)(=O)Nc1ccc(C(=O)NC2CCCC2)cc1` was run?
Answer: 14.4%

Question: How did the “hERG current change (%, negative = inhibition) at 1uM” value turn out when `CCN(CC)S(=O)(=O)c1ccc(N=NC2=C(O)CC(C)(C)CC2=O)cc1` was run?
Answer: 8.55%

Question: Which “hERG current change (%, negative = inhibition) at 1uM” value does the source give for `CCCCc1ccc(NS(=O)(=O)c2c(C)n(C)c(=O)n(C)c2=O)cc1` here?
Answer: 8.02%

Question: How did the “hERG current change (%, negative = inhibition) at 1uM” value turn out when `C=CCOC(=O)C1=C(C)N=C2SCCC(=O)N2C1/C=C/c1ccccc1OC` (stereo not shown) was run?
Answer: 5.23%

Question: How did the “hERG current change (%, negative = inhibition) at 1uM” value turn out when `C=CCn1cc(/C=N/N2C(=O)C3C4C=CC(C4)C3C2=O)c2ccccc21` (stereo not shown) was run?
Answer: 12.9%

Question: With `O=C(O)c1cc(N2C(=O)C3CC=CCC3C2=O)ccc1NCc1cccnc1` (stereo not shown) as the compound, how does the “hERG current change (%, negative = inhibition) at 1uM” value read?
Answer: 16.5%

Question: `COc1ccc(/C=C/C(=O)OCC(=O)c2ccc3c(c2)NC(=O)CO3)c(OC)c1` was tested. Which “hERG current change (%, negative = inhibition) at 1uM” value did it give?
Answer: 9.57%

Question: How did the “hERG current change (%, negative = inhibition) at 1uM” value turn out when `COc1ccc(CC(NC(C)=O)C(=O)N2CCN(C(=O)Nc3ccc(Cl)cc3)CC2)cc1OC` (stereo not shown) was run?
Answer: -8.89%

Question: Which “hERG current change (%, negative = inhibition) at 1uM” value does the source give for `NNC(=O)c1ccccc1OCc1ccccc1` here?
Answer: -2.14%

Question: Which “hERG current change (%, negative = inhibition) at 1uM” value does the source give for `Cc1ccccc1-n1c(SCC(=O)N2CCOCC2)nc(O)c(Cc2ccccc2)c1=O` here?
Answer: 2.4%

Question: How did the “hERG current change (%, negative = inhibition) at 1uM” value turn out when `CC(C(=O)NC(=O)NC1CCCCC1)N1CCN(C(c2ccccc2)c2ccccc2)CC1` (stereo not shown) was run?
Answer: 10%

Question: `CCCCn1c(NC(=O)c2ccco2)c(C(=O)OCC)c2nc3ccccc3nc21` was tested. Which “hERG current change (%, negative = inhibition) at 1uM” value did it give?
Answer: -22%

Question: How did the “hERG current change (%, negative = inhibition) at 1uM” value turn out when `Cc1cc(C(=O)N2CCN(c3ccc([N+](=O)[O-])cc3)CC2)n[nH]1` was run?
Answer: -36.6%

Question: `CCC(C(=O)OCc1csc(CC(=O)Nc2ccccc2C)n1)c1ccccc1` (stereo not shown) was tested. Which “hERG current change (%, negative = inhibition) at 1uM” value did it give?
Answer: 8.92%

Question: How did the “hERG current change (%, negative = inhibition) at 1uM” value turn out when `CCCCn1c(CCNC(=O)c2ccco2)nc2ccccc21` was run?
Answer: 7.54%

Question: For `c1nc(N2CCCC2)c2[nH]cnc2n1`, which “hERG current change (%, negative = inhibition) at 1uM” value is on record?
Answer: -0.216%

Question: For `COc1ccc2nc(SCC(=O)Nc3ccc(S(=O)(=O)Nc4nccc(C)n4)cc3)[nH]c2c1`, which “hERG current change (%, negative = inhibition) at 1uM” value is on record?
Answer: -1.19%

Question: How did the “hERG current change (%, negative = inhibition) at 1uM” value turn out when `O=C(/C=C/c1cccc([N+](=O)[O-])c1)NCCc1ccc(F)cc1` was run?
Answer: 0.561%

Question: Which “hERG current change (%, negative = inhibition) at 1uM” value does the source give for `Cc1c(NS(=O)(=O)c2ccc(Br)s2)c(=O)n(-c2ccccc2)n1C` here?
Answer: 7.94%

Question: For `Cc1oc2c(c1C(=O)NCc1cccnc1)C(=O)c1ccccc1C2=O`, which “hERG current change (%, negative = inhibition) at 1uM” value is on record?
Answer: 2.67%

Question: `CNC(=O)CSc1nnc(-c2ccco2)n1-c1ccc(C)cc1` was tested. Which “hERG current change (%, negative = inhibition) at 1uM” value did it give?
Answer: -10.9%

Question: For `COc1ccc2c(Cl)c(C(=O)NCCc3ccc(S(N)(=O)=O)cc3)sc2c1`, which “hERG current change (%, negative = inhibition) at 1uM” value is on record?
Answer: 13.1%

Question: Which “hERG current change (%, negative = inhibition) at 1uM” value does the source give for `CCOC(=O)c1cc2sccc2n1CC(=O)N1CCCc2ccccc21` here?
Answer: 4.76%

Question: With `CC(C)(C)c1ccc(C(=O)N2CCN(CCNC(=O)C(=O)Nc3ccc(F)cc3)CC2)cc1` as the compound, how does the “hERG current change (%, negative = inhibition) at 1uM” value read?
Answer: 3.72%

Question: For `COc1ccc(NC(=O)c2ccc(C#CC(C)(C)O)cc2)cc1`, which “hERG current change (%, negative = inhibition) at 1uM” value is on record?
Answer: 5.31%

Question: Which “hERG current change (%, negative = inhibition) at 1uM” value does the source give for `COc1ccc(/C=C/C(=O)OCC(=O)NCc2cccs2)cc1OC` here?
Answer: 1.61%

Question: `CC(=O)c1ccc(NC(=O)C[n+]2ccccc2)cc1.[Cl-]` was tested. Which “hERG current change (%, negative = inhibition) at 1uM” value did it give?
Answer: 6.4%

Question: `CC1CCN(C(=O)CN2c3cccc4cccc(c34)S2(=O)=O)CC1` was tested. Which “hERG current change (%, negative = inhibition) at 1uM” value did it give?
Answer: 12.9%

Question: How did the “hERG current change (%, negative = inhibition) at 1uM” value turn out when `COc1cccc(/C=N/Nc2ccc(S(=O)(=O)[O-])cc2)c1O.[K+]` was run?
Answer: 4.86%

Question: `O=C(Nn1cnnc1)c1cc(Cl)ccc1Cl` was tested. Which “hERG current change (%, negative = inhibition) at 1uM” value did it give?
Answer: 12.6%

Question: For `CC(C)(C)NCC(O)COc1c(F)cc(Br)cc1F.Cl` (stereo not shown), which “hERG current change (%, negative = inhibition) at 1uM” value is on record?
Answer: 2.84%

Question: `Cc1cc(Cl)c(S(=O)(=O)Nc2ccc3c(c2)OCO3)cc1OCC(N)=O` was tested. Which “hERG current change (%, negative = inhibition) at 1uM” value did it give?
Answer: 0.529%

Question: `CC(=O)Nc1cccc(NC(=S)Nc2cccc(Cl)c2C)c1` was tested. Which “hERG current change (%, negative = inhibition) at 1uM” value did it give?
Answer: 4.97%

Question: `CN(Cc1c(F)cccc1Cl)C(=O)c1ccc(NC(=O)CC2SC(N3CCCC3)=NC2=O)cc1` (stereo not shown) was tested. Which “hERG current change (%, negative = inhibition) at 1uM” value did it give?
Answer: 7.81%

Question: How did the “hERG current change (%, negative = inhibition) at 1uM” value turn out when `O=C(CCc1[nH]c2ccccc2c1Sc1ccccc1)NCCO` was run?
Answer: 0.0034%

Question: With `CCCCCC1CC(CC(=O)Nc2ccc([N+](=O)[O-])cc2)C(=O)O1` (stereo not shown) as the compound, how does the “hERG current change (%, negative = inhibition) at 1uM” value read?
Answer: -27.8%

Question: `COc1ccc(NS(=O)(=O)c2ccc(OC)c3ccccc23)cn1` was tested. Which “hERG current change (%, negative = inhibition) at 1uM” value did it give?
Answer: 9.44%

Question: How did the “hERG current change (%, negative = inhibition) at 1uM” value turn out when `CCCCOc1ccc(C(=O)NCc2ccccn2)cc1` was run?
Answer: 3.91%

Question: Which “hERG current change (%, negative = inhibition) at 1uM” value does the source give for `CCC(Sc1nc(-c2cccc(OC)c2)c(C#N)c(=O)[nH]1)C(=O)Nc1nnc(C(C)C)s1` (stereo not shown) here?
Answer: 24%

Question: How did the “hERG current change (%, negative = inhibition) at 1uM” value turn out when `O=C(Nc1ccc2nc3ccccc3nc2c1)c1ccc(Br)cc1` was run?
Answer: 8.85%

Question: How did the “hERG current change (%, negative = inhibition) at 1uM” value turn out when `CCn1c(CCCNC(=O)c2ccc(F)cc2)nc2ccccc21` was run?
Answer: -7.17%

Question: With `COc1ccc(/C=C(\NC(=O)c2ccc(C)cc2)C(=O)Nc2ccc(C(=O)O)cc2)cc1` as the compound, how does the “hERG current change (%, negative = inhibition) at 1uM” value read?
Answer: 10.3%

Question: `O=C(CNC(=O)c1ccc(Cl)cc1)NC(CO)c1ccccc1` (stereo not shown) was tested. Which “hERG current change (%, negative = inhibition) at 1uM” value did it give?
Answer: 14.4%

Question: Which “hERG current change (%, negative = inhibition) at 1uM” value does the source give for `COc1cc(C(=O)N/N=C\c2ccccc2)c([N+](=O)[O-])c(OC)c1OC` here?
Answer: -1.14%

Question: `Cc1nc2ccccc2nc1NS(=O)(=O)c1ccc(N)cc1` was tested. Which “hERG current change (%, negative = inhibition) at 1uM” value did it give?
Answer: 11.5%

Question: How did the “hERG current change (%, negative = inhibition) at 1uM” value turn out when `CCCc1[nH]n(-c2ccc([N+](=O)[O-])cc2)c(=O)c1C(C)=NCc1ccncc1` was run?
Answer: -26.2%

Question: How did the “hERG current change (%, negative = inhibition) at 1uM” value turn out when `CC(NC(=O)c1ccc(NC(=O)c2ccco2)cc1)c1ccccc1` (stereo not shown) was run?
Answer: 7.85%

Question: With `O=C1OC(c2ccc(O)cc2)(c2ccc(O)cc2)c2ccccc21` as the compound, how does the “hERG current change (%, negative = inhibition) at 1uM” value read?
Answer: -0.351%
